The values below come from article PMC4673198.

Amino acid sequences for entries named in this document (tags omitted).
UniProt Q8NEZ5: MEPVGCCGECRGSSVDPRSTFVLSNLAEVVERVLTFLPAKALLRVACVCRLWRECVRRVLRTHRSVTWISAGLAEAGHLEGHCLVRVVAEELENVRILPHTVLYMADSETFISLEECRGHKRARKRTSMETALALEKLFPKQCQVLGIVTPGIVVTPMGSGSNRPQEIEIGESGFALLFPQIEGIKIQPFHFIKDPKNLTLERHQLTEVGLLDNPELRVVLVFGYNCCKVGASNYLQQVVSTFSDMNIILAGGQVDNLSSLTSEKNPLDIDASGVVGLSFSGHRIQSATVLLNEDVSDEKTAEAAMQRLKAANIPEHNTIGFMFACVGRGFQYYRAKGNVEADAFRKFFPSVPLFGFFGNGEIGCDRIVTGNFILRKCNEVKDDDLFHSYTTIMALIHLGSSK
UniProt Q9UKT5: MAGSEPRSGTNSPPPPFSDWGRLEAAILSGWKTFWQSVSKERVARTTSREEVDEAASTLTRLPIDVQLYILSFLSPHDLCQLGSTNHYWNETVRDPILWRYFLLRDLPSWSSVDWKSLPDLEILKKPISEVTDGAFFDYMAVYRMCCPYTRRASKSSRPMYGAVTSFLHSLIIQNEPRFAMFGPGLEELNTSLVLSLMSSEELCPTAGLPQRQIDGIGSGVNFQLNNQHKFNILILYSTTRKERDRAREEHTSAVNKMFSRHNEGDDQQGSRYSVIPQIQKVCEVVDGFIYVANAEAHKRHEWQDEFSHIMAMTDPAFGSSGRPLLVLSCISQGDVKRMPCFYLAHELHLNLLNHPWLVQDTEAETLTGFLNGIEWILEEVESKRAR
UniProt O43474: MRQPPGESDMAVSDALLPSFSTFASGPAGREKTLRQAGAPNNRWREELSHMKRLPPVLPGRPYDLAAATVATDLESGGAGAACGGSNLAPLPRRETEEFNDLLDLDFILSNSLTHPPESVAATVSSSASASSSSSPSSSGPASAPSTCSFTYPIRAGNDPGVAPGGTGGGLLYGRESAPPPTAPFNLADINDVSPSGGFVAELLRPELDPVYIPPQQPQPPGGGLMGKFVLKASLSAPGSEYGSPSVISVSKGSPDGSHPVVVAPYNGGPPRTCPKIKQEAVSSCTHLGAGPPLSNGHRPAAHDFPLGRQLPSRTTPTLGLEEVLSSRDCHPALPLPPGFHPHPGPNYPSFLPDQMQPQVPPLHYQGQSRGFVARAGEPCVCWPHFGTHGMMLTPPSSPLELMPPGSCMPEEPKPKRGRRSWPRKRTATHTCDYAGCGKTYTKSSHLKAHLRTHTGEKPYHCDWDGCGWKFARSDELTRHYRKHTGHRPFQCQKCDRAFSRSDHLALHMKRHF

No constants are given. Whether binding was seen depends on the method and setting. In cells and extracts the contact can be indirect. Some entries that bind do so weakly or less than the wild type. For some assays here: Tags and fused reporters may be left off the sequences shown.

Experiment in all cases: co-IP; FLAG tagged human F-box proteins transfected into 293T cells and immunoprecipitated; endogenous KLF4 and SKP1 looked for
For experiment [1], the target named is FLAG tagged FBXO22 (human) (UniProt Q8NEZ5).
Experiment [2] has as its target T1, FLAG tagged FBXO30 (human) (UniProt Q8TB52).
T1 sequence: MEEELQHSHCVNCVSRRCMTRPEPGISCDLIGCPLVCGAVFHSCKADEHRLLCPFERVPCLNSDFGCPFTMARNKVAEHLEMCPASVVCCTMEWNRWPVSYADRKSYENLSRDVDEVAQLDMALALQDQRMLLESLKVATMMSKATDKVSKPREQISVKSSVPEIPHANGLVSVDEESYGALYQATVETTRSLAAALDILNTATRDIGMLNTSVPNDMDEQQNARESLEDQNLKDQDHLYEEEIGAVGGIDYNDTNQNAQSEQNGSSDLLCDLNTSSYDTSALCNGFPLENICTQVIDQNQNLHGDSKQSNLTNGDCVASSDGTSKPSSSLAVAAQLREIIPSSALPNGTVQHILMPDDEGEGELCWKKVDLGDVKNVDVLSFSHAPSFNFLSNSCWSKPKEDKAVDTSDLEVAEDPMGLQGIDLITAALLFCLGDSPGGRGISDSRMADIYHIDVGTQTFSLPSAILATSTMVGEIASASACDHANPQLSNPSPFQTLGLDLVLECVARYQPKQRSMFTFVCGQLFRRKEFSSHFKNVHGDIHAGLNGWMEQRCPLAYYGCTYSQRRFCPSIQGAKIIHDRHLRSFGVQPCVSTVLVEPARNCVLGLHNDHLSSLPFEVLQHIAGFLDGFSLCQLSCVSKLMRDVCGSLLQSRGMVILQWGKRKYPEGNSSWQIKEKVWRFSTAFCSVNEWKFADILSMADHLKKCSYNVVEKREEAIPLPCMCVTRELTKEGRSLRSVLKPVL

Experiment [3] addresses T2, FLAG tagged FBXO34 (human) (UniProt Q9NWN3).
T2 sequence: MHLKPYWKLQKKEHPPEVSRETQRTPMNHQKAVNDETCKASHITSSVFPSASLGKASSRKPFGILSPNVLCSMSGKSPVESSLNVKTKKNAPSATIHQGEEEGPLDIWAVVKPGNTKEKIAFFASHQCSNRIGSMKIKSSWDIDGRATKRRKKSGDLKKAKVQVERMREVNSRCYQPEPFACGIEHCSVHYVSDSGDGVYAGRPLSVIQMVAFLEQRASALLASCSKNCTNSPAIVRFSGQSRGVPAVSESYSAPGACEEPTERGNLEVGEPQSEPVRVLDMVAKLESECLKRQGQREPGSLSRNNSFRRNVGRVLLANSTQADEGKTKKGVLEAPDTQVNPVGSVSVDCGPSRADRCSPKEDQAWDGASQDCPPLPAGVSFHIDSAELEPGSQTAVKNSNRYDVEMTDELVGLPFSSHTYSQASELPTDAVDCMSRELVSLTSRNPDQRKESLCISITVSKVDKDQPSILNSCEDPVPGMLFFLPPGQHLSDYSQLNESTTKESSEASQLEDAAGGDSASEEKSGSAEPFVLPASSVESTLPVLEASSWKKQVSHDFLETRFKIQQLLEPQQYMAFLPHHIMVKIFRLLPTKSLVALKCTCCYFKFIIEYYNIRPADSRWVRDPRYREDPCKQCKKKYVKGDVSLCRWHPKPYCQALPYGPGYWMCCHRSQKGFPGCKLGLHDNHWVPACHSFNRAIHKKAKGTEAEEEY

For experiment [4], the target named is T3, FLAG tagged FBXO36 (human) (UniProt Q8NEA4).
T3 sequence: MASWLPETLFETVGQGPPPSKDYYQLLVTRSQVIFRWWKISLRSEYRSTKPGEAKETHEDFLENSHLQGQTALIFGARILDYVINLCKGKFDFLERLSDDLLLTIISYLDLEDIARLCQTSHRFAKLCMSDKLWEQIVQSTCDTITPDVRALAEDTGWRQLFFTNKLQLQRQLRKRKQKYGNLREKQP

Experiment [5] has as its target FLAG tagged FBXO4 (human) (UniProt Q9UKT5).
Experiment [6] concerns the target T4, FLAG tagged FBXO6 (human) (UniProt Q9NRD1).
T4 sequence: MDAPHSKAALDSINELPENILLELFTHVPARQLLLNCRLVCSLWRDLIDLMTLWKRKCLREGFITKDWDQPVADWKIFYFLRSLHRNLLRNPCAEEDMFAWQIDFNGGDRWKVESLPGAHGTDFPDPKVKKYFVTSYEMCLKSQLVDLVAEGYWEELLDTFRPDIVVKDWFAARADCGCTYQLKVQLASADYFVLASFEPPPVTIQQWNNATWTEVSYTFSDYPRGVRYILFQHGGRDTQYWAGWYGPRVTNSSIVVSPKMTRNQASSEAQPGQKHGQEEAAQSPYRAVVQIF

With “KLF4, endogenous in 293T (from UniProt O43474 1-513)”, the binding result is “binds” in experiment [1]; “no binding” in experiment [2]; “no binding” in experiment [3]; “no binding” in experiment [4]; “no binding” in experiment [5]; “no binding” in experiment [6].

As for “SKP1 in 293T cells (from UniProt P63208 1-163)”, the binding result in experiment [2], in experiment [3], in experiment [4], in experiment [5] and in experiment [6] was “binds” in each case.
